Measurements from the supplement of paper PMC4604168 (melanoma cell lines).
The other results are listed elsewhere or left out. Most values come without repeats; read them as rough.

Test system: SkMel5
Assay: cell count relative to DMSO control; melanoma cells; higher = more viable cells
Conditions: library dose: low library concentration; 72 h
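Further: cell number obtained by counting DAPI-stained nuclei in high-throughput microscope images with image analysis software, screen run in 1,536-well plates.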

SMILES	cell count [%]
Cc1cn(-c2cc(NC(=O)c3ccc(C)c(Nc4nccc(-c5cccnc5)n4)c3)cc(C(F)(F)F)c2)cn1 [nilotinib] + CN(C)S(=O)(=O)c1ccc2c(c1)/C(=C/c1cc3c([nH]1)CCCC3)C(=O)N2 [SU6656] (first compound 0.2 µM, partner dose 0.4 µM)	94.4
Cc1cc(Nc2cc(N3CCN(C)CC3)nc(/C=C/c3ccccc3)n2)n[nH]1 + CC1(C)NC(=O)N(c2ccc([N+](=O)[O-])c(C(F)(F)F)c2)C1=O [nilutamide] (first compound 0.04 µM, partner dose 1 µM)	83.4
Cn1c(=O)n(-c2ccc(C(C)(C)C#N)cc2)c2c3cc(-c4cnc5ccccc5c4)ccc3ncc21 + O=C(O)c1ccc(-c2c[nH]c3ncc(-c4ccccc4)cc23)cc1C1CCCC1 [GSK650394] (first compound 0.004 µM, partner dose 0.16 µM)	109
Cc1cn(-c2cc(NC(=O)c3ccc(C)c(Nc4nccc(-c5cccnc5)n4)c3)cc(C(F)(F)F)c2)cn1 [nilotinib] + Cc1ccc(NC(=O)c2cccc(N(C)C)c2)cc1NC(=O)c1ccc(O)cc1 [ZM336372] (first compound 0.2 µM, partner dose 2 µM)	110
Cc1cc(Nc2cc(N3CCN(C)CC3)nc(/C=C/c3ccccc3)n2)n[nH]1 + O=C(O)C(=O)Nc1sc2c(c1C(=O)O)CCNC2 [TCS401] (first compound 0.04 µM, partner dose 1.66667 µM)	80.7
CC(C)C[C@H](NC(=O)[C@H](Cc1ccccc1)NC(=O)c1cnccn1)B(O)O [Bortezomib] + COc1cc(Nc2ncc(F)c(Nc3ccc4c(n3)NC(=O)C(C)(C)O4)n2)cc(OC)c1OC [Tamatinib] (first compound 0.001 µM, partner dose 0.4 µM)	86.8
Cc1cc(Nc2cc(N3CCN(C)CC3)nc(/C=C/c3ccccc3)n2)n[nH]1 + Cc1cc(N2CCOCC2)cc2[nH]c(-c3c(NC[C@@H](O)c4cccc(Cl)c4)cc[nH]c3=O)nc12 [BMS536924] (first compound 0.04 µM, partner dose 0.2 µM)	93.3
Cc1cn(-c2cc(NC(=O)c3ccc(C)c(Nc4nccc(-c5cccnc5)n4)c3)cc(C(F)(F)F)c2)cn1 [nilotinib] + COc1cc2ncnc(Nc3ccc(Oc4ccccc4)cc3)c2cc1OC [SrcI1] (first compound 0.2 µM, partner dose 2 µM)	110
COc1ccc(C2=N[C@@H](c3ccc(Cl)cc3)[C@@H](c3ccc(Cl)cc3)N2C(=O)N2CCNC(=O)C2)c(OC(C)C)c1 [Nutlin-3] + CN(NC(=O)CC(=O)NN(C)C(=S)c1ccccc1)C(=S)c1ccccc1 [STA4783] (first compound 0.1 µM, partner dose 0.006 µM)	95.2
Cc1cc(Nc2cc(N3CCN(C)CC3)nc(/C=C/c3ccccc3)n2)n[nH]1 + COc1ccc(-c2ccc3c(N4CCOCC4)nc(N4C[C@@H](C)O[C@@H](C)C4)nc3n2)cc1CO [KU0063794] (first compound 0.04 µM, partner dose 0.02 µM)	87.7
Cn1c(=O)n(-c2ccc(C(C)(C)C#N)cc2)c2c3cc(-c4cnc5ccccc5c4)ccc3ncc21 + C[C@@H]1CCN(C(=O)CC#N)C[C@@H]1N(C)c1ncnc2[nH]ccc12 [CP690550] (first compound 0.004 µM, partner dose 1 µM)	109
Cc1cn(-c2cc(NC(=O)c3ccc(C)c(Nc4nccc(-c5cccnc5)n4)c3)cc(C(F)(F)F)c2)cn1 [nilotinib] + C[C@@H]1CCN(C(=O)CC#N)C[C@@H]1N(C)c1ncnc2[nH]ccc12 [CP690550] (first compound 0.2 µM, partner dose 1 µM)	115
Cn1c(=O)n(-c2ccc(C(C)(C)C#N)cc2)c2c3cc(-c4cnc5ccccc5c4)ccc3ncc21 + NC(=O)Nc1cc(-c2cccc(F)c2)sc1C(=O)N[C@H]1CCCNC1 [AZD7762] (first compound 0.004 µM, partner dose 0.02 µM)	118
